Over roughly 4,500 sequences, “median log2 fold change of GCK-ALFA target abundance (FLAG IP / Myc IP barcode read proportion)” has its median near 0.078; the lowest 2% begin near -0.6. The list shows a part of the results.
B1: GBRAP_160_4567 (protein)
chain: MEKVKKFLEDLEKAIKETLEATKNDSVENIRIAVVGTVGSFAMEAAEDPEFSDEMVDAIIDAGDEIAEALKKMKNASYEEIRKEVMKIIEKLKKKVLEIA
B2: GBRAP_160_4282 (protein)
chain: GEKLKELAEELREDRDEILSLVDKISAEEVRTFAVTSLGSILMEAIDGELLTDEEEDELAKIIDDLEAELDALKDASPEEIRAAIEKHFDKAIELLEKAA
B3: GBRAP_14_3825 (protein)
chain: MEKIREVIARMVADLEALFAAISPAKAAALAAAVKAEAERALREIEETGDVEAAMRAAEARLVAAVAAILADEPAEVQATAQAAVRVEWAEAEEEIDELL
B4: GBRAP_14_3802 (protein)
chain: SEEREKAVREITRETIELVREVLEDAPEEVREAVEEKIEEFEEEVIEKNLNPDEVAELGDELVEEVEEILKDAPEEVRARVLAVVAVETGVVVLEIEELE
B5: GBRAP_52_6076 (protein)
chain: MEEKIKATADAIYEAIKAGDKEKALALIEEAIKNFSIEEIKKMLELTAKKVAALGEEAEELFVEVLDEAEDLLLKAGISEDDALEIVGAAEAALAKAVAA
B6: GBRAP_139_3688 (protein)
chain: SALEAKLAEARELTRRAVAEGEPALRELAAFLNSLSEEEREKAVEAIGEELLSLPFDEAEAIFEALRRIALEEFKNEDLAEMIEIERERTLARIAVREEA
B7: GBRAP_160_4745 (protein)
chain: SEELKKLLEEVNEIFDEGIELLEEVPKEEALTVVRGTMGEVLMAVFSSDAASDELEEKIGEIMDEAVERAEANEDGSVEEFIAILKEARDKITELIEKEI
B8: GBRAP_128_3224 (protein)
chain: SMEELEEKVRELLEKIKESGPEERRKLAKELAELMANSTVEEAEAMVKVVEELAPELSEEDLEILIDEFEKAAKATDGPIADELLYAATILSEELLEKEE
B9: GBRAP_184_5247 (protein)
chain: AVHSLELTVNSAADIPAAVAKAAAFFAAHKGTIHILLTAEGISTEDKVELIEALGKAAKAAGIKDLIIDLDADLSEEDVDKLIAAADKLGVRLVVALNEE
B10: GBRAP_128_3368 (protein)
chain: LDEEKLEEIRKLVEEMIKSSVEEVAELTKEIVELISKLSPEEKEAAVEIILEMLPKFSEEKLETIADVIEENKSKVDEYTQRLLAEVQVEALNLAEELEE
B11: GBRAP_122_2949 (protein)
chain: SSEERVRARVDETLARAEAGDPTAAIVEALLEAAEELSPEEVKRFADLLAERMRELGKEAEAAKAFATAALTLEKERPELAEVADHLADLAIELLDLLEE
B12: GBRAP_160_4053 (protein)
chain: MEKLEELKESVKEAEKLILETIETDGVDAAIVVADGEFGSIIMEAAEDEEASEELEEELAKIRDDLVAKLKAAKNASVEEQKKIVKEAAEKAIEAIEKLF
B13: GBRAP_160_4166 (protein)
chain: MEKLEKAKKEIKEIFEEAIEEMKGQTAEERANIARVAFGEIKLLLEENGLLTDEVEEKIDEIEEELVSTILANPDLTDEELAELIKKALEEIFKALEESY
B14: GBRAP_83_6875 (protein)
chain: AEEITVAGPGDRVDELVDAAIDLHKEEGYKVSLEIIVTPEQRDKVLAALKRLADAGVETDVTVLAVGATPEEAAALKAEMEAIFAAAGVKAKVEVVLEEP
B15: GBRAP_52_6069 (protein)
chain: MEERIEKLAKEIAEAIAAGDMEKALAILEEAAKELSVEELKELLVKAAELVASLGDEAHERFVDLLDEFYDILLKEGISEEDALLIVGEAEAALAKAVAA
B16: GBRAP_128_3269 (protein)
chain: MDPAVVARARAAVDAIRTSSPAERRAIADAFADWLLAASVEDAEQAVEVVEERLPELSVEDLDILADALRARRPLADPEKANLLADLEVAALNEAEELEE
B17: GBRAP_184_5304 (protein)
chain: KIKEVDIEADSAEEAIKQIEKAAEEAEKEGKKLKLYLSLKNVSVEGFKKVMELLKKLKEEGKLEDAVVEVLNDKSEEEIDEFIKLADEAGVKLVIALPDE
B18: GBRAP_35_5536 (protein)
chain: MEDEEIVEMIVNTMEDIVEALPDVSPEDRAKLAEHLIRLAERIVEEKPKNKKLIKEAIENLERAIEIIKKSDLPEEVRERLIKRLEEVKEKLEKILKENE
B19: GBRAP_83_6891 (protein)
chain: MIVIAAGGTAEAVEAAVDAAIDLSKEEGEEVVLEAMLGPGAVPALLAGLDRLAAAGVKVELEVTVVARTREEAEATAARVEAHARASGAASKVRVDTEVV
B20: GBRAP_48_5821 (protein)
chain: HHMDEEELEKLVKETVEFMKEVYEEAKKEGLSDEEILKMIKAELGDLALELEEAGYEKAADYLLDPENREKLAKTLLEFFKEGKYEEAYKYLLEELKKAE
B21: GBRAP_83_6961 (protein)
chain: MIVVAASERPESIRSSIEAAIDLHKNEGKEVEIELFVTRENAPAALEGLKKAIDAGVEAEITLVTREEDREAAEALAAELKAYAAAKGRNTTVTVEVLPA
B22: GBRAP_160_4854 (protein)
chain: SEKLEKALKIIDEEEEFAVDAIREAPQSQRGAIATAIAGTALLTLEEEGLVSEETEEKLAAIVDDMAARLAAAADAPAEVHIAIVTEAFEKMKKVIKEEM
B23: GBRAP_14_3813 (protein)
chain: KEELIKKIKEILDELREELVELLGLDEAEVTKLVEKAEKEIKEAILTEKDPKKKIEEIMEKLRKEVEALAAKLGEDVAAAARALVTDAEHEILELIEESE
B24: GBRAP_160_4644 (protein)
chain: SEAVEEMHEIVDEYSEFALEAIEEGDMDNAIAAMRMMVGDLVLEADEDPRFSDEDVDELDKLGEKHVKELEEAKDKSKEELKKIVEEAKEELKKLIEEKY
B25: GBRAP_11_2798 (protein)
chain: KKEELEKAKKLAEELAKLLEQLIKEGVDNEELRKEIEKKLKELKELAEKYLDKGNQKLVEIIEELFKKIDEDPENALQYAQLALATARVLAGNILLDIEE
B26: GBRAP_184_5104 (protein)
chain: KTLVVEVVAKTAEEAIAQLDAAIDEAAAAGASLTVLLKLENVSEEEIVEVVRRVGERARAAGIPALTIGIENELSEETVDRLIKVADELGINLVLVIPDE
B27: GBRAP_160_4800 (protein)
chain: MERVKKVVEIFREELERALEMAKGETNEERVNIFDVELGSAIMEAIEEGLLNDEEEEVAAEVRDELVAEIAANPDLTEEELRELAERAVKELEERLRELE
B28: GBRAP_11_2702 (protein)
chain: KKEKLKKAAELARKAAEVVEQLLKEGVDNKELREELEKLLEELEKLTKEYGDKALQKLAEIAKELWEEAKADPENAVQYLKELLAALRVLEGQYLLEIEE
B29: GBRAP_160_4485 (protein)
chain: MEKLEKAKKEVEELIKEAVEAIKEAPPEQRLPIARAYAGEIAQTVYELGLVDDEEFEELLELAEKLMKEVVEASEKGEEAMEEKAKELLEKIKKFLEEKS

molecular target: GABARAP, O95166; assay: median log2 fold change of GCK-ALFA target abundance (FLAG IP / Myc IP barcode read proportion) (log2 ratio); each designed protein is fused to an ALFA-tag nanobody in HEK293 cells to bring the named protein to FLAG-tagged glucokinase (GCK); Myc marks an untargeted standard; higher = target protein stabilised (more abundant); details: target protein: 3xFLAG-MCP-GCK-ALFA reporter; HEK293 landing pad (RPLP)
In short: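 The readout is target abundance, the per-binder median log2 ratio of FLAG to Myc barcode read proportions. It came from HEK293 landing-pad cells carrying a recombined ALFA-nanobody-fused binder library, induced with 2 μg mL^−1 doxycycline and transfected with a plasmid for a FLAG-tagged target and a Myc-tagged standard. After 48 h, lysates were immunoprecipitated with anti-FLAG and anti-Myc, and circular RNA barcodes were reverse transcribed, amplified and sequenced. Each barcode needed a proportion of at least 10^−7 in both replicates and each binder at least 3 barcodes per replicate, a pseudocount of 10^−6 was added, and the replicates were pooled.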

GABARAP, O95166, sequence (O95166 whole entry, the tested form may be a part): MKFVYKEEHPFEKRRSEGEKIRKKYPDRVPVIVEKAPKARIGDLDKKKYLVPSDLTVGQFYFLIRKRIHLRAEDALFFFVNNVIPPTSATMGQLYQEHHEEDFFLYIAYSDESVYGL

Row | Binder | median log2 fold change
1 | B1 | 0.0399
2 | B2 | -0.356
3 | B3 | 0.0541
4 | B4 | -0.586
5 | B5 | -0.554
6 | B6 | 0.313
7 | B7 | -0.202
8 | B8 | 0.175
9 | B9 | 0.156
10 | B10 | 0.172
11 | B11 | -0.0847
12 | B12 | 0.159
13 | B13 | 0.267
14 | B14 | 0.148
15 | B15 | -0.00777
16 | B16 | 0.0243
17 | B17 | -0.173
18 | B18 | 0.00223
19 | B19 | -0.155
20 | B20 | 0.0598
21 | B21 | 0.189
22 | B22 | -0.223
23 | B23 | 0.109
24 | B24 | -0.295
25 | B25 | 0.424
26 | B26 | -0.109
27 | B27 | 0.0969
28 | B28 | 0.134
29 | B29 | 0.0718

Reference: the supplement of paper PMC12632987
